{
  "source": "paper PMC4336329",
  "about": "(PLoS ONE, 2015)",
  "note": "Screen size: about 310,000 compounds; about 14,000 (4.5%) showed an effect of 50% or more. Effects have a minus sign here. The list shows a part of the results.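 Note: peak tail current of the secondary pulse compared with the same well before compound.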",
  "data": [
    {"molecular_target": "human ether-à-go-go-related gene (hERG) potassium channel (human, UniProt Q12809)", "sequence (Q12809 whole entry, looked up)": "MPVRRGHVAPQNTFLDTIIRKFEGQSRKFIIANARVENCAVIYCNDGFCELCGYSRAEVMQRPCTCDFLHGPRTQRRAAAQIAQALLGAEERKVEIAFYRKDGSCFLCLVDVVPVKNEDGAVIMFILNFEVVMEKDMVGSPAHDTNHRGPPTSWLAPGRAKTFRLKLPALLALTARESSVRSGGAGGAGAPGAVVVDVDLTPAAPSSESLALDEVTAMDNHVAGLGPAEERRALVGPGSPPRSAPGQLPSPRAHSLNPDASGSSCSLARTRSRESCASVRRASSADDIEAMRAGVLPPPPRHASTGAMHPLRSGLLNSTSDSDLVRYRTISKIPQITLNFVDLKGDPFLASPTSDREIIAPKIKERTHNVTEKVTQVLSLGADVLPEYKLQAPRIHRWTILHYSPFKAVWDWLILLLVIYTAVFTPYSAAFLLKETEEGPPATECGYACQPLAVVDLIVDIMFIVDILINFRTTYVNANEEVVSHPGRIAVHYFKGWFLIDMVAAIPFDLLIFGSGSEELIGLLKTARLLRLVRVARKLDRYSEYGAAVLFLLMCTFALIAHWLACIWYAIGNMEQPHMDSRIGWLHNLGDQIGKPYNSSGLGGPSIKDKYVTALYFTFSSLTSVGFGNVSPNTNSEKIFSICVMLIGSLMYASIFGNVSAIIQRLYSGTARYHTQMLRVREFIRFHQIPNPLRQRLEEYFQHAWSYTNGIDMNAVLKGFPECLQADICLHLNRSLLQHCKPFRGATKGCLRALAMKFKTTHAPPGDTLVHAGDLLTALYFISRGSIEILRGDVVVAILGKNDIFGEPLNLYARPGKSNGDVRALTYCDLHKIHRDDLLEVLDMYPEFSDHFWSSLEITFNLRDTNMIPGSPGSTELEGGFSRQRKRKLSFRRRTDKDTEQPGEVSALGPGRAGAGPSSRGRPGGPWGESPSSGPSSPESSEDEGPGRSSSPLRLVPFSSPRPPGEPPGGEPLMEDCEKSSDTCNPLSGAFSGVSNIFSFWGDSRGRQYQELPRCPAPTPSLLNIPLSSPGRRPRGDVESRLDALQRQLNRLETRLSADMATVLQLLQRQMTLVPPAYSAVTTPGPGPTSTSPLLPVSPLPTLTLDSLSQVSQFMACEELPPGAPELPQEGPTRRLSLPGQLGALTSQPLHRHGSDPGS", "experiment": "primary screen, population patch clamp on CHO cells stably expressing hERG", "units": {"hERG current change (%, negative = inhibition) at 10uM": "%"}, "values": [
      {"smiles": "COc1ccc(CCNC(=O)CCCc2nnc3n(C)c(=O)c4sccc4n23)cc1OC", "hERG current change (%, negative = inhibition) at 10uM": 19.4},
      {"smiles": "O=C(NCc1ccccc1Cl)c1csc2c1CCCCC2", "hERG current change (%, negative = inhibition) at 10uM": 20.1},
      {"smiles": "CCSc1cc(N2CCCC2)nc(-c2ccccc2)n1", "hERG current change (%, negative = inhibition) at 10uM": 11.6},
      {"smiles": "CCN(C(=O)COC(=O)C1CC1)c1c(N)n(Cc2ccccc2)c(=O)[nH]c1=O", "hERG current change (%, negative = inhibition) at 10uM": -14.5},
      {"smiles": "O=C(c1ccc(NS(=O)(=O)c2cccc([N+](=O)[O-])c2)cc1)N1CCN(C(=O)c2ccco2)CC1", "hERG current change (%, negative = inhibition) at 10uM": -15.3},
      {"smiles": "CC1(C)CC(=O)C=C(NCCc2c[nH]c3ccccc23)C1", "hERG current change (%, negative = inhibition) at 10uM": -12.1},
      {"smiles": "COc1ccc(NC(=O)CSc2nc3nc(C)cc(C)c3c(=O)[nH]2)cc1", "hERG current change (%, negative = inhibition) at 10uM": 16.7},
      {"smiles": "CC(=O)C(=Nc1cccc(Cl)c1)NNc1ccccc1C", "hERG current change (%, negative = inhibition) at 10uM": 8.82},
      {"smiles": "CCc1ccc(NS(=O)(=O)c2c(C)nc3sc(CC)nn3c2=O)cc1", "hERG current change (%, negative = inhibition) at 10uM": -9.17},
      {"smiles": "CCCN(C(=O)c1ccc(-n2cncn2)c([N+](=O)[O-])c1)C1CCS(=O)(=O)C1", "note": "(stereo not shown)", "hERG current change (%, negative = inhibition) at 10uM": 1.56},
      {"smiles": "O=C(CCCN1C(=O)c2cccc3cccc(c23)C1=O)Nc1ccon1", "hERG current change (%, negative = inhibition) at 10uM": 9.73},
      {"smiles": "Cc1ccc(NC(=O)C(c2ccccc2)N2CCN(CC(=O)N3CCOCC3)CC2)cc1Cl", "note": "(stereo not shown)", "hERG current change (%, negative = inhibition) at 10uM": -67.4},
      {"smiles": "CCc1oc(C(=O)OC)cc1CSC(=N)N.Cl", "hERG current change (%, negative = inhibition) at 10uM": 12},
      {"smiles": "O=C(Nc1ccc(N2CCN(C(=O)c3ccco3)CC2)c(Cl)c1)c1cccs1", "hERG current change (%, negative = inhibition) at 10uM": -21.8},
      {"smiles": "O=S(=O)(NCCc1csc(-c2cccnc2)n1)c1ccc2c(c1)OCCO2", "hERG current change (%, negative = inhibition) at 10uM": -3.79},
      {"smiles": "COc1ccccc1N1CCN(CC(=O)c2c(C)n(C)c3ccccc23)CC1", "hERG current change (%, negative = inhibition) at 10uM": -24.1},
      {"smiles": "O=C(CSc1nc(-c2ccccc2)ns1)N1CCOCC1", "hERG current change (%, negative = inhibition) at 10uM": 13},
      {"smiles": "CN(C)CCC(=O)N1c2ccccc2Sc2ccc(C(F)(F)F)cc21.O=C(O)/C=C/C(=O)O", "hERG current change (%, negative = inhibition) at 10uM": -9.9},
      {"smiles": "Cc1cc(C(=O)Cn2nc(C(=O)O)c3ccccc3c2=O)c(C)n1CC(F)(F)F", "hERG current change (%, negative = inhibition) at 10uM": 13.7},
      {"smiles": "COc1cc(OC)cc(C(=O)NNC(=O)c2cc3ccccc3cc2O)c1", "hERG current change (%, negative = inhibition) at 10uM": 11.6},
      {"smiles": "Cc1cc(S(=O)(=O)N2CCN(C(=O)c3ccco3)CC2)ccc1F", "hERG current change (%, negative = inhibition) at 10uM": -1.73},
      {"smiles": "CSCCNC(=O)c1ccc(OC2CCN(CCc3ccccc3)CC2)cc1", "hERG current change (%, negative = inhibition) at 10uM": -64.6},
      {"smiles": "Cc1ccc(C)c(S(=O)(=O)N2CCCC2CNC(=O)C(=O)NCC2CCCO2)c1", "note": "(stereo not shown)", "hERG current change (%, negative = inhibition) at 10uM": -15.5},
      {"smiles": "COc1ccc(C(=O)/C=C/Nc2ccccn2)c(OC)c1", "hERG current change (%, negative = inhibition) at 10uM": 13.2},
      {"smiles": "CCn1c(=S)sc2c(=O)n(CC(=O)Nc3cccc(Br)c3)c(C)nc21", "hERG current change (%, negative = inhibition) at 10uM": 10.2},
      {"smiles": "Cc1ccccc1Nc1nc(N)nc(CN2CCN(c3ccccn3)CC2)n1", "hERG current change (%, negative = inhibition) at 10uM": -66.6},
      {"smiles": "Cc1cc(C(=O)N2CCN(c3ncccc3C#N)CC2)no1", "hERG current change (%, negative = inhibition) at 10uM": -0.539},
      {"smiles": "Cc1ccc2c(=O)[nH]c(Nc3nc(C)cc(-c4ccccc4)n3)nc2c1", "hERG current change (%, negative = inhibition) at 10uM": 5.59},
      {"smiles": "CCOC(=O)C(=O)N1CCN(c2nc(-c3ccc(Cl)cc3)cs2)CC1", "hERG current change (%, negative = inhibition) at 10uM": -7.23},
      {"smiles": "CS(=O)(=O)N(CC(=O)NCCSc1ccccn1)c1cccc2ccccc12", "hERG current change (%, negative = inhibition) at 10uM": -9.92},
      {"smiles": "CCOC(=O)c1nn(-c2ccc(Cl)cc2)c(=O)c(C#N)c1C", "hERG current change (%, negative = inhibition) at 10uM": 5.94},
      {"smiles": "O=c1c2cc(Br)ccc2[nH]c(=S)n1Cc1ccccn1", "hERG current change (%, negative = inhibition) at 10uM": 12.7},
      {"smiles": "CN(C)C(=O)[C@@H]1C[C@H]1[C@@H](NC(=O)OCc1ccccc1)c1ccccc1", "hERG current change (%, negative = inhibition) at 10uM": -64.2},
      {"smiles": "CN(C)S(=O)(=O)c1cccc(NC(=O)CN2C(=O)C3C4C=CC(C4)C3C2=O)c1", "note": "(stereo not shown)", "hERG current change (%, negative = inhibition) at 10uM": 12.8},
      {"smiles": "O=C(CCC(=O)N1CCOCC1)NCc1cccc(C(F)(F)F)c1", "hERG current change (%, negative = inhibition) at 10uM": -0.171},
      {"smiles": "CC1CN(Cc2c(O)ccc3c(=O)c(-c4ccccc4)coc23)CC(C)O1.Cl", "note": "(stereo not shown)", "hERG current change (%, negative = inhibition) at 10uM": -6.52},
      {"smiles": "COc1cnn(-c2ccc(C)cc2)c(=O)c1SCc1ccccc1", "hERG current change (%, negative = inhibition) at 10uM": -20.9},
      {"smiles": "CCOC(=O)c1c(-c2ccc(OC)cc2)csc1/N=C/C1C(=O)CCCC1=O", "hERG current change (%, negative = inhibition) at 10uM": 2.18},
      {"smiles": "Cc1cc(C)cc(NC(=O)Cn2c(-c3ccccc3Cl)nc3ccccc32)c1", "hERG current change (%, negative = inhibition) at 10uM": 5.5},
      {"smiles": "COc1cccc2[nH]c3c(N4CCc5ccccc5C4)ncnc3c12", "hERG current change (%, negative = inhibition) at 10uM": 4.69},
      {"smiles": "COc1ccccc1C1NC(=O)NC(C)=C1C(=O)OC1CCC(C)CC1", "note": "(stereo not shown)", "hERG current change (%, negative = inhibition) at 10uM": 17},
      {"smiles": "CCOc1ccccc1NC(=O)/C(C#N)=C/c1c(C)nn(-c2ccccc2)c1Cl", "hERG current change (%, negative = inhibition) at 10uM": -3.07},
      {"smiles": "CN(C)c1ccc(C2N(c3ccc(F)cc3)C(=O)C3CCCN32)cc1", "note": "(stereo not shown)", "hERG current change (%, negative = inhibition) at 10uM": 8.36},
      {"smiles": "O=C(Nc1ccc(Cl)c(Cl)c1)c1ccc(Cn2c(=O)[nH]c3ccsc3c2=O)cc1", "hERG current change (%, negative = inhibition) at 10uM": 19.4},
      {"smiles": "Cc1ccccc1CSc1nnc(-c2ccncc2)o1", "hERG current change (%, negative = inhibition) at 10uM": -28.6},
      {"smiles": "COc1ccccc1N(CN1CCCC1=O)C(=O)c1ccccc1F", "hERG current change (%, negative = inhibition) at 10uM": -8.74},
      {"smiles": "CN1/C(=C\\C(=O)COC(=O)c2ccc([N+](=O)[O-])o2)C(C)(C)c2ccccc21", "hERG current change (%, negative = inhibition) at 10uM": 13.8},
      {"smiles": "O=[N+]([O-])c1ccc(NCCCN2CCOCC2)nc1", "hERG current change (%, negative = inhibition) at 10uM": -29.8},
      {"smiles": "CCCCc1ccc(NC(=S)N2CCN(C(=O)OCC)CC2)cc1", "hERG current change (%, negative = inhibition) at 10uM": 0.129},
      {"smiles": "CC(=O)N(C)C1=C(N2CCOCC2)C(=O)c2ccccc2C1=O", "hERG current change (%, negative = inhibition) at 10uM": -6.15},
      {"smiles": "CCn1nc(C(=O)OCC(=O)NCCN2C(=O)CSC2=O)c2ccccc2c1=O", "hERG current change (%, negative = inhibition) at 10uM": -0.515},
      {"smiles": "CC(CCc1ccccc1)NC(=O)C(=O)N1CCOCC1", "note": "(stereo not shown)", "hERG current change (%, negative = inhibition) at 10uM": 19.8},
      {"smiles": "CCCC(=O)Nc1nc2nc(-c3ccccc3)cc(-c3ccccc3)n2n1", "hERG current change (%, negative = inhibition) at 10uM": 8.16},
      {"smiles": "CN(CCCC(=O)O)S(=O)(=O)c1ccc2c(c1)C(=O)c1cc(S(=O)(=O)N(C)CCCC(=O)O)ccc1-2", "hERG current change (%, negative = inhibition) at 10uM": 19.8},
      {"smiles": "COc1ccccc1CC(=O)Nc1cccc2ccccc12", "hERG current change (%, negative = inhibition) at 10uM": 13.1}
    ]}
  ]
}
